# Laboratory results: the BET-seq Pho4 binding data (Le et al. 2018)
# Some of the results follow. The energies were worked out here from pooled read counts, against the library average; single values are noisy.
# Target: T1, Pho4 (S. cerevisiae) (UniProt P07270)
# T1 sequence: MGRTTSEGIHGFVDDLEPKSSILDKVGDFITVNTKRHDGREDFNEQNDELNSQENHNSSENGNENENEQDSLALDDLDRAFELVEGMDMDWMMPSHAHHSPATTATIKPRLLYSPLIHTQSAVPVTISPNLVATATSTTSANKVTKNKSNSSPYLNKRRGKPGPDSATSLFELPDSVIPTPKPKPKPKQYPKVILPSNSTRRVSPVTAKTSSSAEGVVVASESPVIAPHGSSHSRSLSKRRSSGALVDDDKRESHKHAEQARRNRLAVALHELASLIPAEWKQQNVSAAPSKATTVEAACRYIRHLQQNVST
# Experiment: relative binding free energy (BET-seq); higher = weaker binding
# Conditions: reference: library average
row,Sequence,relative binding free energy [kcal/mol]
1,AGTAGCACGTGGATGG,-0.06
2,TTACGCACGTGGGTTG,-0.15
3,AATTGCACGTGTGATA,0.15
4,AAAGTCACGTGATGGC,0.35
5,AAGACCACGTGGGTGG,-0.22
6,GGATACACGTGAGGAG,0.38
7,GACTTCACGTGGGTAG,0.28
8,TTGGTCACGTGGAGGT,0.15
9,TAGTGCACGTGAGTCT,0.22
10,TAGGCCACGTGTGGGT,-0.11
11,CGTGTCACGTGGTGTA,0
12,TCGGGCACGTGAGTTA,0.27
13,TTGGTCACGTGTGGAT,0.24
14,ATTAGCACGTGGACGT,0.03
15,AGATGCACGTGTAAGT,0.06
16,GTTTGCACGTGTTGGT,0.08
17,CTTTACACGTGGTAAT,0.01
18,AGTCGCACGTGTGGTT,0.1
19,TTGAGCACGTGTAGAA,-0.04
20,GAGTTCACGTGTAGGG,0.35
21,AGTTACACGTGGAAGG,0.06
22,TTGTACACGTGGTACA,-0.07
23,AGATTCACGTGCGGAG,0.18

row,Sequence,relative binding free energy [kcal/mol]
1,TGGCGCACGTGTCAGG,-0.06
2,TGAGGCACGTGCTGTA,-0.16
3,TGGAGCACGTGGCGAT,-0.21
4,TGTAACACGTGGGGAA,-0.05
5,TGATTCACGTGCTGAG,0.25
6,CTAAGCACGTGTGGTT,-0.18
7,TGACGCACGTGTTGAT,-0.08
8,TTTGTCACGTGTGTGA,0.15
9,GGCGTCACGTGTTGGA,0.25
10,GGGGGCACGTGGTACC,-0.08
11,AGAGGCACGTGTGAAT,0.03
12,GGTTTCACGTGTGAAA,0.28
13,GGTTCCACGTGAGATT,0.38
14,AAGGGCACGTGTTCTT,-0.19
15,AGGTCCACGTGGATGG,0.13
16,TGATGCACGTGGGGCA,-0.29
17,AGGCACACGTGTGTGT,0.11
18,GACGTCACGTGTGTGT,0.14
19,TGAATCACGTGGCAGG,0.03
20,CAAGGCACGTGGAGTA,-0.02
21,GAGCGCACGTGTGTGG,-0.03
22,GGCGTCACGTGGGGAC,-0.09
23,GATTTCACGTGGACTT,0.34

row,Sequence,relative binding free energy [kcal/mol]
1,TGGGCCACGTGTCGTG,-0.13
2,AGAGTCACGTGGGTTT,0.02
3,ATGTCCACGTGTTGGG,-0.02
4,TTAGGCACGTGGTAGA,-0.18
5,GGGCACACGTGTTTAT,0.12
6,GCTGCCACGTGCGGGG,-0.18
7,TGTGGCACGTGAAGGA,0.17
8,TCGAACACGTGGAGTG,0.12
9,TTTTGCACGTGGCCGT,-0.13
10,TGATACACGTGTGAAG,0.15
11,CGCGACACGTGGGGGC,-0.11
12,GATATCACGTGCTGGG,0.21
13,GAGTTCACGTGTTGCT,0.18
14,GATCTCACGTGGTGGG,0.21
15,GGACGCACGTGGTTAA,0.06
16,GGGATCACGTGCTGTG,0.03
17,TATTCCACGTGTAGTG,0.14
18,AATAACACGTGGGAGG,-0.16
19,TTGTCCACGTGTTGAA,0.04
20,AATGGCACGTGTCTGG,-0.07
21,TTGTGCACGTGTTTAG,0.04
22,CGCAGCACGTGGGTGG,-0.2
23,AGGTGCACGTGATACG,-0.1

row,Sequence,relative binding free energy [kcal/mol]
1,TAAAGCACGTGAGGGA,0.13
2,TGTTGCACGTGTTTCA,-0.01
3,ACTATCACGTGGGTGT,-0.04
4,GTAGGCACGTGAGAGA,0.21
5,GCAGGCACGTGAGTTG,0.13
6,ATTAGCACGTGAGGGT,0.07
7,AGGACCACGTGGGTAG,-0.15
8,TAATGCACGTGGCGCG,-0.05
9,AGATACACGTGTAAGT,0.2
10,CGGGTCACGTGAGGTA,0.36
11,TTGAGCACGTGGGATT,-0.13
12,TGGTGCACGTGGACGT,-0.03
13,GGTTTCACGTGCACGG,0.26
14,TATGGCACGTGTTTCT,-0.03
15,GAGAGCACGTGAGGAG,0.23
16,GGTATCACGTGCGAGT,0.21
17,CTGACCACGTGAGGGG,0.23
18,ATGTTCACGTGCTATA,0.13
19,ATCTTCACGTGTGGTG,0.28
20,ATTTTCACGTGGATGG,0.27
21,TTGCGCACGTGAATGT,0.17
22,TTATACACGTGAGGTA,0.17
23,CTAATCACGTGATGGT,0.32

row,Sequence,relative binding free energy [kcal/mol]
1,CGTTGCACGTGATGGT,0.01
2,ATGGACACGTGCCGGT,0
3,ATGTGCACGTGAATTG,0.25
4,TTTCGCACGTGTGTCT,0.03
5,GTTTACACGTGTATAT,0.21
6,CATTTCACGTGTATGA,0.29
7,TAAAGCACGTGGGTCT,-0.19
8,GTGCACACGTGGTGTG,-0.02
9,AGGTACACGTGAAGTT,0.36
10,CGAAACACGTGGTGGG,-0.11
11,TGATTCACGTGGGTGA,0.07
12,TTTTGCACGTGAAACT,0.21
13,TCAGCCACGTGAGGTG,0.21
14,TGTACCACGTGGCGGT,-0.22
15,ATAATCACGTGATGTT,0.24
16,ACGTGCACGTGTGTTT,-0.03
17,TTAATCACGTGTGCAG,0.1
18,CGGGTCACGTGGTATG,0.08
19,GTATGCACGTGGGGTT,-0.08
20,GATTTCACGTGAGTGC,0.3
21,GGGCTCACGTGCCGGT,0.28
22,GCTAGCACGTGCGGGT,-0.1
23,CGTCGCACGTGTGGGT,-0.13
